The values that follow come from PMC6919601, “Identification of Plasmodium dipeptidyl aminopeptidase allosteric inhibitors by high throughput screening” (PLoS ONE, 2019).

The whole screen tested about 110,000 compounds, of which about 230 (0.21%) showed an effect of 50% or more. Some of the results follow.
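Also: 30 min substrate incubation versus DMSO and 10 µM JCP410 controls.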

The target of the test is DPAP1 (Plasmodium falciparum, UniProt Q8IIJ9). Put plainly: primary screen, percent inhibition; read by cleavage of a fluorogenic dipeptide substrate; higher = more effect of the substance. More on the design: species or system P. falciparum D10 trophozoite lysates; single well.
DPAP1, sequence (Q8IIJ9 whole entry, looked up): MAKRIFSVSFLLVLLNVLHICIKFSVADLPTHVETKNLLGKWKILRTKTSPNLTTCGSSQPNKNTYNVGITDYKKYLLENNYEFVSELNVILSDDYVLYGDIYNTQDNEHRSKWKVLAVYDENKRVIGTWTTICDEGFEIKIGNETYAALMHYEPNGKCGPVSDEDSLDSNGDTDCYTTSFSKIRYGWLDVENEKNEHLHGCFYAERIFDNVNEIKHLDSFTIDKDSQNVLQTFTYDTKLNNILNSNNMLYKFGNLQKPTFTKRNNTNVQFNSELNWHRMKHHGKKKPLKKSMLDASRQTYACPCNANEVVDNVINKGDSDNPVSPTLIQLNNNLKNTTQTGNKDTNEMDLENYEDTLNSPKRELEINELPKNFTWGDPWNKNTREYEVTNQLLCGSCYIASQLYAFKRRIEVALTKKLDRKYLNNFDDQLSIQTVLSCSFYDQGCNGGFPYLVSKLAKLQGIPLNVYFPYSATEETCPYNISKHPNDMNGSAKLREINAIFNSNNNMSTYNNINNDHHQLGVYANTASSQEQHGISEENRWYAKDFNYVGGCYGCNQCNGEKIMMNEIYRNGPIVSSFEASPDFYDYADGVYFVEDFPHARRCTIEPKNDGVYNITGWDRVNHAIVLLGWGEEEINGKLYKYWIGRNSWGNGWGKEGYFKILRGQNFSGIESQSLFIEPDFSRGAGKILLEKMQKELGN
For `Cc1ccc(Nc2nc(Cl)nc(N(c3ccccc3)c3ccccc3)n2)cc1`, the “% Inhibition @ 10 uM” value is on record as -5.5%. On to `CCc1ccc(/C=C2\C(=O)NN(c3ccc(Cl)c(Cl)c3)C2=O)cc1`, for which the “% Inhibition @ 10 uM” value is -5.23%. In the case of `COc1cccc(C2=N/C(=C\C=C\c3ccccc3OC)C(=O)O2)c1` it was -1.33%; in that of `CC(=O)Nc1ccc(-c2ccc(OCc3ccccc3F)cc2)cc1`, -0.925%. As to `O=C(C(=O)N1CCCN(c2ncc(C(F)(F)F)cc2Cl)CC1)c1c[nH]c2ccccc12`, the “% Inhibition @ 10 uM” value turned out to be 2.51%. `CC(=O)Nc1cccc(Oc2nc(-c3ccccc3F)nc3ccccc23)c1`: the “% Inhibition @ 10 uM” value was determined as 0.755%. For `Cc1cccn2c(=O)c(/C=C(\C#N)S(=O)(=O)c3ccccc3)c(Oc3ccccc3)nc12`, the “% Inhibition @ 10 uM” value is -3.23%. On to `O=S(=O)(c1ccc(F)cc1)N1CCN(c2ncccn2)CC1`, for which the “% Inhibition @ 10 uM” value stood at 1.7%. With `COc1cccc(C(=O)Nc2c3c(nc4ccccc24)CCCC3)c1`, the “% Inhibition @ 10 uM” value is -3.23%. In the case of `CC(C)C[C@H](NC(=O)c1cccc(-c2ccccn2)c1)C(=O)NCC#N`, the “% Inhibition @ 10 uM” value is on record as 2.87%.

Regarding `COc1ccc(N2C(=O)CC(N3CCN(CCO)CC3)C2=O)cc1` (stereo not shown), the “% Inhibition @ 10 uM” value is reported as -9.49%. With `Clc1nc(Nc2cccc3ccccc23)nc(N2CCOCC2)n1`, the “% Inhibition @ 10 uM” value is listed as -2.51%. Turning to `CCN1CCC(C#N)(NC(=O)[C@H](C[C@H](C)c2ccccc2)NC(=O)c2ccc(-c3cc(C(=O)O)ccc3Cl)cc2)CC1`, the “% Inhibition @ 10 uM” value is -0.207%. `Cn1c(=O)c2c(-c3ccc(Cl)cc3)n(C3CCCCC3)cc2n(C)c1=O`: the “% Inhibition @ 10 uM” value is 5.17%. For the molecule `Cc1ccc(/C=C(\C#N)c2nc(-c3ccc(Cl)cc3)cs2)cc1`, the “% Inhibition @ 10 uM” value came out at 1.41%. In the case of `CN(C)CC(=O)N1c2ccccc2CCc2ccc(NC(=O)c3ccccc3)cc21` it was 0.774%. In the case of `N#Cc1ccccc1NC(=O)COc1ccc2ccccc2c1` it was -4.03%; in that of `CC1CCN(C(=O)CN(c2ccccc2Br)S(C)(=O)=O)CC1`, 5.53%; in that of `CCOc1nc(-c2cccc(OC)c2)ccc1-c1noc(-c2cccnc2)n1`, -5%. `O=C(Nc1cc(C(F)(F)F)ccc1Cl)c1cccc(NC(=O)C(F)(F)F)c1`: the “% Inhibition @ 10 uM” value is given as 4.44%.

Regarding `CC(=O)OCC(=O)C1(O)CCC2C3CC=C4CC(O)CCC4(C)C3CCC21C` (stereo not shown), the “% Inhibition @ 10 uM” value is reported as -0.0953%.

Turning to `Cc1cc2ccccc2n1CCNC(=O)c1ccc(S(=O)(=O)N2CCOCC2)cc1`, the “% Inhibition @ 10 uM” value is reported as -8.2%. With `CCCCCCC1C(=O)NC(=S)NC1=O`, the “% Inhibition @ 10 uM” value is on record as 28.5%. Regarding `NC(=O)CSc1nc2nccnc2c(=O)n1CCc1ccccc1`, the “% Inhibition @ 10 uM” value is 0.813%.

Take `CSc1nc2c(c(=O)n(C)c(=O)n2C)n1Cc1ccccc1Cl`: the “% Inhibition @ 10 uM” value was determined as 4%. Turning to `Cc1ccccc1CN1CCCNC1=O`, the “% Inhibition @ 10 uM” value is given as 4.23%. Consider `C=CCn1c(SCC(=O)NCCN2CCOCC2)nc2sc3c(c2c1=O)CCC3`, for which the “% Inhibition @ 10 uM” value is recorded as -4.4%. Consider `Cc1nc2ccccc2n1Cc1cccc2ccccc12`, for which the “% Inhibition @ 10 uM” value is reported as 2.92%.

For `COC(=O)c1sc(NC(=O)C2CCCC2)c(C(=O)OC)c1C`, the “% Inhibition @ 10 uM” value is reported as -7.78%. With `Cc1ccc(C2=NN(C(=O)CCC(=O)O)C(c3ccccc3F)C2)cc1` (stereo not shown), the “% Inhibition @ 10 uM” value is -4.59%. Turning to `c1ccc(N2CCN(Cc3cccc4ccccc34)CC2)nc1`, the “% Inhibition @ 10 uM” value is on record as -1.29%. On to `O=C(Cc1coc2ccc3ccccc3c12)Nc1ccccc1F`, for which the “% Inhibition @ 10 uM” value is on record as -3.26%. Regarding `O=S(=O)(NCC1CCCO1)c1cc(Br)c(Br)s1` (stereo not shown), the “% Inhibition @ 10 uM” value was 1.2%.

Take `CCCCc1nc(S(=O)(=O)c2ccc(C)cc2)c(N2CCOCC2)o1`: the “% Inhibition @ 10 uM” value is 1.37%. Regarding `Cn1c(/C=C/c2ccco2)nc2ccccc21`, the “% Inhibition @ 10 uM” value was found to be 4.25%. In the case of `CC(Cc1cccc(C(F)(F)F)c1)NCCN1CCOCC1` (stereo not shown) it was -5.31%. As for `Cn1c(=O)c2c(nc(CN(Cc3ccccc3)Cc3ccccc3)n2CCCO)n(C)c1=O`, the “% Inhibition @ 10 uM” value is listed as -3.23%.

For `Cc1ccc(C2C(C#N)=C(N)SC(N)=C2C#N)s1`, the “% Inhibition @ 10 uM” value is given as 55.8%. In the case of `COc1ccc(C(=O)Nc2ccccc2-c2ccccc2)cc1`, the “% Inhibition @ 10 uM” value was -6.27%. In the case of `O=C(O)C1CCCN(c2nn3cc(-c4ccc(F)cc4)nc3s2)C1` (stereo not shown) it was -3.34%. As for `CC(C)Oc1ccc(-c2ccc(OC(C)C)cc2)cc1`, the “% Inhibition @ 10 uM” value is on record as -0.902%. In the case of `COc1ccccc1N1CCN(C(=O)CCCOc2ccc(Cl)cc2Cl)CC1` it was -3.77%; in that of `Cc1ccccc1NS(=O)(=O)c1ccc(-c2ccc(S(=O)(=O)Nc3ccccc3C)cc2)cc1`, -2.55%; in that of `O=C(C1CCC(CNS(=O)(=O)c2ccccc2)CC1)N1CCOCC1` (stereo not shown), -4.53%. Regarding `Cc1cc(NC(=O)CSc2nc3c(cc2C#N)CCCC3)no1`, the “% Inhibition @ 10 uM” value is 1.03%. With `CCOc1cc(-c2nc(-c3cc4ccccc4nc3OC)no2)cc(OCC)c1OCC`, the “% Inhibition @ 10 uM” value is reported as -4.19%. `C=CCSc1nc2c(c(-c3ccc(C)o3)c1C#N)CCCC2`: the “% Inhibition @ 10 uM” value is reported as 13.6%.

Turning to `O=c1c2ccccc2nc(C(Cl)(Cl)Cl)n1-c1ccccc1`, the “% Inhibition @ 10 uM” value is listed as -17.2%.

`CCCCCCn1c(=O)c2c(nc(CN(CC)CC)n2C)n(C)c1=O`: the “% Inhibition @ 10 uM” value is given as -1.44%. `COc1cc(NS(=O)(=O)c2ccc(NC(=O)c3ccc(-c4ccccc4)cc3)cc2)nc(OC)n1`: the “% Inhibition @ 10 uM” value is -10.9%. As for `COc1ccc(C2Oc3c(OC)cccc3C3CC(c4cc(C)ccc4O)=NN32)cc1O` (stereo not shown), the “% Inhibition @ 10 uM” value was found to be 4.97%. With `CC(C)NC(=O)C(C)N1Cc2ccccc2C1=O` (stereo not shown), the “% Inhibition @ 10 uM” value is on record as -2.69%. Consider `COC(=O)C1=C(C)N=C2SCCC(=O)N2C1c1cccc(Oc2ccccc2)c1` (stereo not shown), for which the “% Inhibition @ 10 uM” value is -1.17%. Consider `CC(=O)c1c(C)nc(-c2ccc(Cl)cc2)nc1NC(=O)c1ccccc1`, for which the “% Inhibition @ 10 uM” value is reported as 3.25%.

On to `COc1ccc(C(=O)Nc2sc3c(c2C#N)CCC(C)C3)cc1` (stereo not shown), for which the “% Inhibition @ 10 uM” value was -2.07%. `CCc1nc2c(C)cc(C)cc2c(N)c1C`: the “% Inhibition @ 10 uM” value was -1.32%. `O=C(NCCc1ccc(Cl)cc1)C(Cc1ccccc1)N1Cc2ccccc2C1=O` (stereo not shown): the “% Inhibition @ 10 uM” value is given as -1.58%.

In the case of `Cc1cc(O)nc(SCc2cn3c(C)cc(C)nc3n2)n1`, the “% Inhibition @ 10 uM” value came out at 1.72%. Consider `O=C(NCC1OCCc2ccccc21)c1ccco1` (stereo not shown), for which the “% Inhibition @ 10 uM” value is listed as -3.29%.

For `C#CCn1nc(-c2ccccc2)ccc1=O`, the “% Inhibition @ 10 uM” value is recorded as -0.946%. In the case of `COc1cc(C2(c3ccc(O)c(OC)c3)C(=O)N(C)c3ccc(C)cc32)ccc1O` it was -0.69%. Turning to `CC(C)=CCCC1(C)OC(=O)N(CCOC23CC4CC(CC(C4)C2)C3)C1(C)O` (stereo not shown), the “% Inhibition @ 10 uM” value is -5.63%. In the case of `COc1ccc(CC(C)N2CCCC(O)C2)cc1OC` (stereo not shown) it was 0.217%; in that of `Cc1cc(C)nc(SCC(=O)c2ccc(O)cc2O)n1`, -0.687%.
